# Hit rate of the full screen: of about 310,000 compounds, about 14,000 (4.5%) showed an effect of 50% or more. Effects have a minus sign here. Some of the results follow.
# Biological target: human ether-à-go-go-related gene (hERG) potassium channel (human, UniProt Q12809)
# Test: primary screen, population patch clamp on CHO cells stably expressing hERG
# 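Also: peak tail current of the secondary pulse compared with the same well before compound.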
# Chain of human ether-à-go-go-related gene (hERG) potassium channel (Q12809 whole entry, looked up): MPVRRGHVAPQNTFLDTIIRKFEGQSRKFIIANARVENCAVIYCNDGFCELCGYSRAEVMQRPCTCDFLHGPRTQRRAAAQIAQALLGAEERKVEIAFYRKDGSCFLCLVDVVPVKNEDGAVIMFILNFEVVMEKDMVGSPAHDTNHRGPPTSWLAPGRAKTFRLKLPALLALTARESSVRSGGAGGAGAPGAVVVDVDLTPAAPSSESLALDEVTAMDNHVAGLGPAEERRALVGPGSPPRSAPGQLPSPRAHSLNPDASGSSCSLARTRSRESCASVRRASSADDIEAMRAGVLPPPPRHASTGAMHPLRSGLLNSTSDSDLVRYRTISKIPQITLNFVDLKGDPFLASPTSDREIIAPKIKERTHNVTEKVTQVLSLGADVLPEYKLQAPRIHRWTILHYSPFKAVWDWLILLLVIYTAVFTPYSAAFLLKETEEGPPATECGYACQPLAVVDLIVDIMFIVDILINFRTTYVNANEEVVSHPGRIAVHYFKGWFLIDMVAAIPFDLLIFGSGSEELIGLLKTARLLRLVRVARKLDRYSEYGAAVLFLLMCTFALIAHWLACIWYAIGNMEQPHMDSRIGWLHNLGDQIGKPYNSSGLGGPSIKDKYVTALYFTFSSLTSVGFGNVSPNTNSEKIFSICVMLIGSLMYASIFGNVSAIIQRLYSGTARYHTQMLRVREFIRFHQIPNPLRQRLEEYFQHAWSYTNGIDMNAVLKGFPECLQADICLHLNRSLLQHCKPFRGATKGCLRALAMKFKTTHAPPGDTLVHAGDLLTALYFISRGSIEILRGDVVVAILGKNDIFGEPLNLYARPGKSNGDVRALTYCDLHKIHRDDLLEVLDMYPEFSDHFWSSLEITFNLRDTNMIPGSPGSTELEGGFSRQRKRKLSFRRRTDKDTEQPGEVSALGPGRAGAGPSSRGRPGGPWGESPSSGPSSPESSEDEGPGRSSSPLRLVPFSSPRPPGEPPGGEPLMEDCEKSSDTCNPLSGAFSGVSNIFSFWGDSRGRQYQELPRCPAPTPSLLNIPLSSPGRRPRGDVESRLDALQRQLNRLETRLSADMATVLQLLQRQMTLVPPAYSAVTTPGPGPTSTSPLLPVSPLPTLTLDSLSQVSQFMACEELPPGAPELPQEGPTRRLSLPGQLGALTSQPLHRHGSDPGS
row,Structure (SMILES),"hERG current change (%, negative = inhibition) at 10uM"
1,COc1ccc(CCNC(=O)COC(=O)/C=C/c2cccs2)cc1OC,6.97%
2,CCOC(=O)Cn1c2c(c(=N)c3ccccc31)CCC2.Cl,4.06%
3,O=S1(=O)N=C2CCCCCN2C(c2ccncc2)N1 (stereo not drawn),-1.1%
4,Cc1nc2nc[nH]n2c(=O)c1NC(=O)c1c(-c2ccccc2Cl)noc1C,4.9%
5,Cc1ccc(NC(=O)CS(=O)CC(=O)Nc2ccc(N3CCOCC3)cc2)cc1Cl (stereo not drawn),1.1%
6,CC1Cc2ccccc2N1C(=O)CN1C(=O)NC2(CCCCC2)C1=O (stereo not drawn),14.8%
7,Cc1ccc(C2=C(CC(=O)O)C(=O)CC2)cc1,12.1%
8,C/C(=N/Nc1ccccc1[N+](=O)[O-])c1ccc([N+](=O)[O-])cc1,5.07%
9,Cc1ccc(C(=O)Nc2nc3ccc(S(C)(=O)=O)cc3s2)cc1C,12%
10,Cc1cc(S(=O)(=O)N2CCOCC2)ccc1OCC(=O)Nc1ccc(F)cc1F,12.3%
11,COc1cc(CNC(C)C)c(Br)cc1OC1CCCC1.Cl,-0.224%
12,CCOc1cc(/C=N/NC(=O)C(=O)NCCCOC(C)C)cc(Br)c1O,7.39%
13,COc1ccc([N+](=O)[O-])cc1NC(=O)C(C)OC(=O)Cn1[nH]c(=O)c2ccccc2c1=O (stereo not drawn),-7.54%
14,COc1cccc(N=C2SC(C(=O)Nc3ccccc3F)CC(=O)N2C)c1 (stereo not drawn),-2.52%
15,Cc1c(Cl)cn2c(=O)cc(CN3CCN(c4ccc(F)cc4)CC3)nc2c1Cl,-37.1%
16,O=C(Nc1ccc(S(=O)(=O)N2CCOCC2)cc1)c1cccc(Br)c1,-7.61%
17,C=CCN(c1ccc(Br)cc1C(=O)OC)S(C)(=O)=O,0.801%
18,Cc1[nH]c(=O)c(C#N)c(C)c1[N+](=O)[O-],-0.00732%
19,Cc1ccc(C)c(OCCCNCc2ccccc2)c1.O=C(O)C(=O)O,-25.5%
20,COC(=O)N/N=C/c1ccccc1OCc1ccccc1,13.4%
21,CCOc1ccc(OC(=O)c2cccnc2)cc1,25.1%
22,CCCCOc1c(Cl)cc(C(=O)N(C)CC(=O)Nc2ccc(N3CCOCC3)cc2)cc1OCC,9.24%

row,Structure (SMILES),"hERG current change (%, negative = inhibition) at 10uM"
1,N#CC1=C(C=Nc2ccccc2O)CCC1,19%
2,CC(C)N(C(=O)c1ccc(C(=O)Nc2ccc([N+](=O)[O-])cc2)cc1)C(C)C,15.7%
3,CCn1cc(C(=O)O)c(=O)c2cnc(N3CCN(C(=S)NC(=O)c4ccc(F)c(F)c4)CC3)nc21,17.9%
4,COc1ccccc1N1CCN(c2ncnc3c2oc2ccccc23)CC1,6.73%
5,CC1=CC(C2CC(=O)N(c3ccccc3C)C2=O)CC2C(=O)N(c3ccccc3C)C(=O)C12 (stereo not drawn),-3.52%
6,CC(C)NC(=O)CSc1ccccc1C(=O)N1CCN(S(=O)(=O)/C=C/c2ccccc2)CC1,-27.9%
7,COc1cc(C(=O)OCC(=O)NCCCc2ccccc2)ccc1OCC(C)C,13.4%
8,CC(=O)Oc1ccc([C@@H]2COc3c(ccc4c3C=CC(C)(C)O4)C2)c(OC(C)=O)c1,14.7%
9,COc1cc(C(=O)OCC(=O)NC2CCCC2)cc(OC)c1OC,16.7%
10,CC(OC(=O)Cn1[nH]c(=O)c2ccccc2c1=O)C(=O)NC1(C#N)CCCCC1 (stereo not drawn),4.63%
11,COc1ccccc1NC(=O)C1=C(C)Nc2nc(-c3ccccc3)nn2C1c1ccccn1 (stereo not drawn),-21.3%
12,Cc1noc(C)c1CSCc1ccc(Cl)cc1,31.2%
13,Cc1[nH]nc2c1-c1nc3ccccc3nc1C(C)(C)C2,8.32%
14,O=C(COC(=O)c1ccc2ncsc2c1)Nc1ncc(Cl)cc1Cl,-1.12%
15,CCNC(=O)/C(C#N)=C/c1c(N(Cc2ccccc2)Cc2ccccc2)nc2ccccn2c1=O,-35.9%
16,NC(=O)N/N=C/c1cccc(C(F)(F)F)c1,7.26%
17,O=C(Oc1ccc2ccccc2c1Br)N1CCCCCC1,1.59%
18,CCc1ccc(/C=C\C(=O)N2CCCC2)cc1,-11.8%
19,COc1ccccc1NC(=O)Cc1csc(N)n1,8.31%
20,Cc1cccc(CS(=O)(=O)c2cn(CC(=O)N3CCOCC3)c3ccccc23)c1,-1.17%
21,O=C1c2c(O)cccc2Cc2cccc(O)c21,5.15%
22,O=C(CCCn1c(=O)oc2ccccc21)N1CCN(c2ccccn2)CC1,-47.6%

row,Structure (SMILES),"hERG current change (%, negative = inhibition) at 10uM"
1,Cc1nc2c(n1O)CCC/C2=N\O,7.32%
2,CN(/N=C/c1ccc([N+](=O)[O-])o1)c1ccccc1,2.91%
3,CCOC(=O)c1ccc[n+](CC(=O)c2ccc(NC(=O)c3ccccc3)cc2)c1.[Br-],-3.73%
4,COc1ccc(NC(=O)c2cc3c(CO)cnc(C)c3oc2=Nc2cccc(F)c2)c(OC)c1,18.7%
5,CCSc1nnc(N2C(=O)c3ccc(C(=O)c4ccc(C(=O)O)cc4)cc3C2=O)s1,3.84%
6,O=C(COC(=O)CNS(=O)(=O)c1c(Cl)cccc1Cl)Nc1cccnc1Cl,1.5%
7,CC1CCc2[nH]c3ccc(C(=O)Nc4ccc(C(=O)N(C)C)cc4)cc3c2C1 (stereo not drawn),28.9%
8,Cc1cc(=O)oc2cc(OC(C)C(=O)NC3CCN(Cc4ccccc4)CC3)ccc12 (stereo not drawn),-79.2%
9,CCOC(=O)c1c(CN(CC)CC)oc2ccc(OC)cc12,-61.9%
10,CC1CCN(CCCCOc2ccc(C(C)(C)C)cc2)CC1.O=C(O)C(=O)O,-59.6%
11,COc1ccc(C(CC(=O)N2CCCC2)c2ccc(F)cc2)cc1 (stereo not drawn),-71.5%
12,O=C(CCc1nnc(-c2ccccc2)o1)NCc1c(F)cccc1F,17.8%
13,COc1ccc(NC(=O)CSc2c3c(nc4ccccc24)CCCC3)c(OC)c1,-47.5%
14,CC1CCN(S(=O)(=O)c2ccc3c(c2)N(CC(=O)NCc2cccnc2)C(=O)CS3)CC1,-53.3%
15,CCOC(=O)CC1C(=O)NCCN1C(=O)c1c(F)cccc1F (stereo not drawn),16.1%
16,Cc1ccc(NS(=O)(=O)c2ccc(C(=O)OCC(=O)NCC3CCCO3)cc2)cc1 (stereo not drawn),2.06%
17,COc1ccc(NC(=O)c2cc3n(n2)C(C(F)(F)F)CC(c2ccco2)N3)cc1 (stereo not drawn),7.87%
18,Cc1nc2scc(C)n2c(=O)c1S(=O)(=O)NCc1ccccc1,11.8%
19,COCCNc1c2c(nc3ccccc13)CCC2.Cl,-58.5%
20,CN(CCCNC(=O)c1ccc(N2CCCC2=O)cc1)c1ccccc1,-6.96%
21,O=C(Nc1nc2ccccc2n1CCN1CCOCC1)c1cn(-c2ccccc2)nc1-c1ccccc1,-0.966%
22,CCOC(=O)C(=O)c1csc(NC(=O)CCSc2ccc(C)cc2)n1,11.4%

row,Structure (SMILES),"hERG current change (%, negative = inhibition) at 10uM"
1,Cc1ccc2cc(/C=N/NC(=O)CN3CCCCC3)c(Cl)nc2c1,-44.1%
2,COc1ccc(CNCc2ccc([N+](=O)[O-])cc2)cc1OC.O=C(O)C(=O)O,-38.7%
3,COc1ccc(CCNC(=O)c2cc(-c3ccc4c(c3)OCO4)on2)cc1OC,-4.11%
4,N=c1c2c3c(sc2ncn1CCN1CCOCC1)CCCCC3,-42.9%
5,Cc1cccc(OC(C)C(=O)N(Cc2cccs2)C2CCS(=O)(=O)C2)c1C (stereo not drawn),-14.8%
6,O=C(C1CCCC1)N1CCN(S(=O)(=O)c2ccc(F)cc2)CC1,15.9%
7,O/N=C/c1nc2cc(Cl)ccc2o1,11%
8,CC(C)Oc1ccc(/C(O)=C2/C(=O)C(=O)N(CCN3CCNCC3)C2c2cccc([N+](=O)[O-])c2)cc1 (stereo not drawn),21.1%
9,Cc1ccc(NC(=O)CSc2n[nH]c(=O)n2C2CC2)cc1S(=O)(=O)N1CCOCC1,14.2%
10,CC1CC(C)CN(C(=O)C2CCC(CNS(=O)(=O)c3ccccc3)CC2)C1 (stereo not drawn),-14%
11,CC(C)N(CCNS(=O)(=O)c1ccc(Cl)cc1)C(C)C.Cl,-28.1%
12,O=C(CSc1nnc(COc2ccccc2)o1)NC1CC2CCC1C2 (stereo not drawn),17.5%
13,O=C(CSc1ccc(Cl)cc1)Nc1ccc(N2CCN(C(=O)c3ccco3)CC2)cc1,-16.1%
14,CCOc1c(Cl)cc(C(=O)Nc2ccccc2C(=O)O)cc1Cl,80.5%
15,Cc1ccc(NC(=O)CN(c2ccc(Cl)cc2)S(=O)(=O)c2cc([N+](=O)[O-])ccc2Cl)cc1,5.17%
16,COc1ccc(S(=O)(=O)N(CC(=O)NC2CCCC2)c2ccccc2OC)cc1,-4.13%
17,COc1cc(/C=C2\N=C(C)OC2=O)cc(Cl)c1OC(C)=O,14.9%
18,Cc1ccc(C)c(-n2cc[nH]c2=S)c1,18.4%
19,CCc1ccc2c(c1)/C(=N/N(C)C(=S)NC)C(=O)N2,-13.4%
20,COc1ccc(/C=N/NC(=O)c2nn(-c3ccccc3)c(=O)c3c(N)scc23)cc1,-3.55%
21,CCOc1ccccc1CNC(=O)c1c([N+](=O)[O-])c(C)nn1C,-10.9%

# Source: PMC4336329 (PLoS ONE, 2015)
